PubChem BioAssay AID2060483 (Molecular Pharmacology Branch, DTP, NCI, 2025)
Some entries of the source have several records that differ or are many. The list is limited to them. An entry can have further records. The values listed for one entry are repeated measurements across runs, samples, wells, individuals or studies. Counts like (3×) stand for listed records that agree.

Test system: K24384-001-R-PDC complex spheroids, viability
Test: Anticancer human tumor K24384-001-R-PDC patient-derived pancreatic adenocarcinoma cell line growth inhibition [GQUAD]
Settings: for viability, T/C: stronger effect = lower value
Source text: DNA G-quadruplex Stabilizer Agents in Combinations in Complex Spheroids
A high-throughput screen of multi-cell type tumor spheroids was designed to identify active combinations of DNA G-quadruplex stabilizer agents and targeted small molecules. Complex spheroids include a stromal component modeled by human endothelial cells (HUVEC) and fibroblasts modeled by human mesenchymal stem cells (MSCs). The concentration ranges selected for each drug and investigational agent were based upon clinically achievable concentrations if the clinical Cmax of the agent was known.
Compounds. The drugs and investigational agents: pidnarulex (CX-5461; NSC782164), APTO-253 (NSC789042), BRACO-19 (NSC847499), peposertib (NSC802822), ceralasertib (NSC780249), elimusertib (NSC800525), camonsertib (NSC841442), AZD-1390 (NSC803789), olaparib (NSC753686), talazoparib (NSC767125), ART-558 (NSC835418), sotorasib (NSC818433), MRTX-1133 (NSC836407), SN-38 (NSC673596), topotecan (NSC609699), etoposide (NSC141540), doxorubicin (NSC123127), gemcitabine (NSC613327), 5-fluorouracil (NSC19893), paclitaxel (NSC125973), vemurafenib (NSC761431), panobinostat (NSC761190), R-306465 (JNJ-16241199; NSC773264), adavosertib (NSC754352), TP-3654 (NSC805149), carboplatin (NSC241240), KSQ-4279 (NSC840948), and staurosporine (NSC755774) were obtained from the National Cancer Institute (NCI) Developmental Therapeutics Program Chemical Repository (34). The FDA-approved anticancer drug set is available from the NCI Developmental Therapeutics Program. […] The stock solutions were prepared in dimethyl sulfoxide (DMSO, Sigma-Aldrich, St. Louis, MO, cat. D2650) at 800-fold the tested concentration and stored at -70 degrees C prior to their use. All drugs and investigational agents were tested over a range starting from a high concentration at or near the clinical Cmax and decreasing in half-log increments. If the clinical Cmax for an agent had not been determined, the highest concentration tested was 10 microM.
2.3 Cell Culture. All cells were maintained in an incubator at 37 degrees C and 5% CO2 with 95% humidity. The PDC lines were cultured according to standard operating procedures established by the NCI PDMR. All PDCs were thawed and cultured in Matrigel-coated flasks prepared with a working solution of 1X Ham's F-12 nutrient mix, without supplementation (Invitrogen, cat. 11765054), 100 U/mL penicillin-streptomycin (Invitrogen, cat. 15140122), and 2.5% Matrigel (Corning Inc., cat. 354248) for the first three passages. The 857933-349-R-J2-PDC line was cultured in 6C/Colon 1B media, which includes advanced DMEM/F-12 (Thermo Fisher Scientific, cat. 12634028), 10 mM HEPES (Thermo Fisher Scientific, cat. 15630080), 1X GlutaMAX supplement (Thermo Fisher Scientific, cat. 35050061), 0.1 mg/mL primocin (InvivoGen, cat. ant-pm-2), 10% defined fetal bovine serum, heat inactivated (HyClone Laboratories Inc., cat. SH30070.03HI), 50% L-WRN conditioned media (ATCC, cat. CRL-3276), 1.25 mM N-Acetyl-L-cysteine (Sigma-Aldrich, cat. A9165), 10 mM nicotinamide (Sigma-Aldrich, cat. N0636), 1X B-27 supplement (Thermo Fisher Scientific, cat. 17504044), 1X N-2 supplement (Thermo Fisher Scientific, cat. 17502048), 10 microM Y-27632 dihydrochloride (Tocris Bioscience, cat. 1254), and 50 ng/mL human EGF recombinant protein (Thermo Fisher Scientific, cat. PHG0311). The 485176-168-R4-J1-PDC line was cultured in Panc media, which includes all 6C/Colon 1B media components plus 100 ng/mL human FGF-10 (Thermo Fisher Scientific, cat. 100-26), 500 nM SB-431542 (Selleckchem, cat. S1067), and gastrin (Tocris, cat. 3006).
[…]
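Also: spheroids exposed to compounds for seven days.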

Row | SMILES | viability, T/C (compound alone 1 µM) | viability, T/C (compound alone 3.16 µM) | viability, T/C (compound alone 10 µM) | IC50 (compound alone, run of 02/20/2024)
1 | CN(C)c1ccc(Nc2c3ccc(NC(=O)CCN4CCCC4)cc3nc3cc(NC(=O)CCN4CCCC4)ccc23)cc1 | 90.3 (2×), 92.5, 83.5, 95.4, 86.1, 89.1, 80.2, 75.8, 91.1, 84.9, 101% | 105, 93.5, 82.7, 96.6, 92, 81.8, 74.2, 102, 78.3, 89.3, 89.9, 86.2% | 109, 94.5, 76, 84, 84.2, 75.9, 68.9, 77.5, 71.4, 87.5, 71.3, 99.2% | –
2 | O=C(NO)c1cnc(N2CCN(S(=O)(=O)c3ccc4ccccc4c3)CC2)nc1 | 0.98%, 22.9%, 27.9% | – | – | –
3 | Cc1[nH]c2ccc(F)cc2c1-c1nc2c3cccnc3c3ncccc3c2[nH]1 | 86.8, 84.6, 90.2, 86, 85.7, 95.7, 86.1, 93.9, 93.5, 83.8, 68, 80.1% | – | 52.1, 64.2, 58.3, 55.2, 61.6, 69.5, 52.9, 73.7, 74.7, 83.7, 82, 77.2% | –
4 | Cc1cnc(CNC(=O)c2c(=O)c3ccc(N4CCCN(C)CC4)nc3n3c2sc2ccccc23)cn1 | – | – | 30.2, 16.6, 21, 31.9, 39.8, 0.3, 23.7, 34.2, 37.1, 0.16, 12, 33.2% | 847 nM, 384 nM, 307 nM, 1.58 µM, 422 nM, 243 nM, 301 nM, 593 nM, 334 nM, 318 nM, 579 nM
